Our source for the binding values is article PMC4125091.

By UniProt entry, the sequences of proteins in these tests, tags left out.
UniProt P06224: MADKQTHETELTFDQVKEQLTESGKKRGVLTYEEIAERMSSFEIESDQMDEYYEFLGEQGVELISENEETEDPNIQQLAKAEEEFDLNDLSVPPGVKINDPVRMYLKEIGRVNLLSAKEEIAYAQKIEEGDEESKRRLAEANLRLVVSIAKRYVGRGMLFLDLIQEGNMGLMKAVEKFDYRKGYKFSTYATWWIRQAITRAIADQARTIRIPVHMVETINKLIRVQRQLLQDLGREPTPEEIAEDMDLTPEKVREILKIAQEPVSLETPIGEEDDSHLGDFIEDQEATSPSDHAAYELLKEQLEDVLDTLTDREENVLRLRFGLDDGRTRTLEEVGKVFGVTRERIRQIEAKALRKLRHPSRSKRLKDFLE

Assay [1] has as its target T1, DivIVA-FLAG (B. subtilis) (UniProt P71021).
T1 sequence: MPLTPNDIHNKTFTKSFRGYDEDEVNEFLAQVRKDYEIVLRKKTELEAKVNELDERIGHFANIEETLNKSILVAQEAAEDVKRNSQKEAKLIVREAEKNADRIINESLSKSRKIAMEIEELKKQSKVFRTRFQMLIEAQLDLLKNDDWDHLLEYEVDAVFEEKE
The assay can be described thus: co-IP; anti-FLAG affinity resin incubated overnight at 4°C with Triton X-100-solubilized extracts of B. subtilis induced to sporulate for 1.5 h (50 mM Tris pH 7.4, 150 mM NaCl, 1 mM EDTA, 1% Triton X-100); washed, eluted with FLAG peptide; fractions immunoblotted with antisera to GFP, DivIVA or σ^A.

The target in assay [2] is T2, SpoIIE-FLAG (B. subtilis) (UniProt P37475).
T2 sequence: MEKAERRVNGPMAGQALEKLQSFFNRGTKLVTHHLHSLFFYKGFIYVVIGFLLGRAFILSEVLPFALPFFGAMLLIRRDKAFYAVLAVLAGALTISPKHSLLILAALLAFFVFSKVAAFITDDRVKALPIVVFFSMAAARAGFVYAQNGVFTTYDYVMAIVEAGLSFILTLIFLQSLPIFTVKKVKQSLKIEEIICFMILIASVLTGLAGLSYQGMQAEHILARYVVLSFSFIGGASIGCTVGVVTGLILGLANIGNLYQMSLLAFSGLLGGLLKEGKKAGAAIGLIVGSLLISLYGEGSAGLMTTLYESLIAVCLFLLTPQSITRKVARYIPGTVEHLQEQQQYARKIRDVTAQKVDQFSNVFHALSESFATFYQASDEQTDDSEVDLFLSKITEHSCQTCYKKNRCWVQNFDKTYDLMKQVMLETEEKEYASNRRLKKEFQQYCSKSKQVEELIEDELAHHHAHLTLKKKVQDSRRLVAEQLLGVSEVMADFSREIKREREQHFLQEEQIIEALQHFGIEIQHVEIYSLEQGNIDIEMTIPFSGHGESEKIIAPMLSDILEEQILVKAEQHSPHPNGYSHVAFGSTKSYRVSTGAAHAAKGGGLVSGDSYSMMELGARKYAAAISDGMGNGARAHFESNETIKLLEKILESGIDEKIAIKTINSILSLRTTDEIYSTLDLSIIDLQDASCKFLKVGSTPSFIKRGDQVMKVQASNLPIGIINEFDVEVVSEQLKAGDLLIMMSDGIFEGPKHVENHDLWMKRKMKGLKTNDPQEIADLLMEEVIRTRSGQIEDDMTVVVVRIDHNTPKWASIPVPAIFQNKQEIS
The description is as above.

Results are given in words; binding and its absence hold for the method and conditions named. Binding seen in cells or lysates may run through a third protein. Some binding calls cover weakened binding; strength is not graded here. Sequences can lack the tags named with a protein.

Regarding σ^A (from UniProt P06224 1-371), the binding result in assay [1] and in assay [2] was “no binding” each time.

B1: DivIVA (native, untagged) (protein, UniProt P71021 1-164)
chain: T1 sequence
Consider B1, for which the binding result in assay [1] and in assay [2] was “binds” in each case.

B2: SpoVM-GFP (peptide, UniProt P37817 1-26)
chain: MKFYTIKLPKFLGGIVRAMLGSFRKD
Regarding B2, in assay [1], the binding entry is “no binding”.

B3: SpoIIE-GFP (protein, UniProt P37475 1-827)
chain: T2 sequence
As to B3, the binding entry in assay [1] is “binds”.
